US20130337044

Biological target: human C3, P01024
Sequence (P01024 whole entry, looked up): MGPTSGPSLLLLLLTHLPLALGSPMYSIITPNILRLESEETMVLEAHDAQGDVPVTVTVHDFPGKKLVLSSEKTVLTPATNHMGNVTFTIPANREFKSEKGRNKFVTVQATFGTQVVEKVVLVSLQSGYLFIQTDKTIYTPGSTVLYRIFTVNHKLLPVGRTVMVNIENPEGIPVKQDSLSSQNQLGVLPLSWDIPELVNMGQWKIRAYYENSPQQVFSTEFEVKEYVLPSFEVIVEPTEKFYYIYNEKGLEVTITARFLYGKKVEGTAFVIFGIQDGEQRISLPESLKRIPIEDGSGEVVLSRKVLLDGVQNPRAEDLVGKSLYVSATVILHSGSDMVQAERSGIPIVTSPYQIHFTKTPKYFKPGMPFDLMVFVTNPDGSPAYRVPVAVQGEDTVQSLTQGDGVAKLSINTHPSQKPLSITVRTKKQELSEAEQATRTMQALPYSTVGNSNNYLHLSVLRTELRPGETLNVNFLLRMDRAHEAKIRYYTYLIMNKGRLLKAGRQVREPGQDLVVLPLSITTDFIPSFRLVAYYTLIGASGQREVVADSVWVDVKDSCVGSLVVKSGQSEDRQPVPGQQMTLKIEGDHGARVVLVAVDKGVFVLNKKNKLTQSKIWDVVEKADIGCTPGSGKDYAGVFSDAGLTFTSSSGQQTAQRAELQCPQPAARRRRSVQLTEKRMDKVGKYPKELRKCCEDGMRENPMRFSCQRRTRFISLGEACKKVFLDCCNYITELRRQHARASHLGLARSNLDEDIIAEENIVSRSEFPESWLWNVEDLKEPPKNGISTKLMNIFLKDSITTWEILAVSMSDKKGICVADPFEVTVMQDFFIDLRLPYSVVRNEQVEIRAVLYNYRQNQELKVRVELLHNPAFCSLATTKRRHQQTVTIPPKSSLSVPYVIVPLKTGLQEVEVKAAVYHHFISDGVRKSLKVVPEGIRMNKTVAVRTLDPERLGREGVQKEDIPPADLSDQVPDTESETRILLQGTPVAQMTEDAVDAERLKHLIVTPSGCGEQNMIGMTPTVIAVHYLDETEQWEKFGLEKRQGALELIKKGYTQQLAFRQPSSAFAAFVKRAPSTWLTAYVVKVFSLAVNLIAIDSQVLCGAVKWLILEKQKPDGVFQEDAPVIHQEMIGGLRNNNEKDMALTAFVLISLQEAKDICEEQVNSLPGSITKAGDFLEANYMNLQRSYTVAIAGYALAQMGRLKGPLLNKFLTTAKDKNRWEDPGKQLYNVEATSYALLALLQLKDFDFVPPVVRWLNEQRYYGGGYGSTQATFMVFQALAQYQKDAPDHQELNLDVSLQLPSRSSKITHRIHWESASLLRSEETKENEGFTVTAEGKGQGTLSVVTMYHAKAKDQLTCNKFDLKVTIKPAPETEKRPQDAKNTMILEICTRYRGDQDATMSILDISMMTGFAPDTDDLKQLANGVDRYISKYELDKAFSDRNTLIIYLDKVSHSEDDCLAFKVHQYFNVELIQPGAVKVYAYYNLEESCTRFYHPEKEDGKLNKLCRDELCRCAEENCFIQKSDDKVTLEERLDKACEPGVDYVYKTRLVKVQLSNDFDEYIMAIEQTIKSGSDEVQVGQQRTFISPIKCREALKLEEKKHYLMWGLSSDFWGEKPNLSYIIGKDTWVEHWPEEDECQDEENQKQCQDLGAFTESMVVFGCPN

B1: Factor B (protein)
chain: TPWSLARPQGSCSLEGVEIKGGSFRLLQEGQALEYVCPSGFYPYPVQTRTCRSTGSWSTLKTQDQKTVRKAECRAIHCPRPHDFENGEYWPRSPYYNVSDEISFHCYDGYTLRGSANRTCQVNGRWSGQTAICDNGAGYCSNPGIPIGTRKVGSQYRLEDSVTYHCSRGLTLRGSQRRTCQEGGSWSGTEPSCQDSFMYDTPQEVAEAFLSSLTETIEGVDAEDGHGPGEQQKRKIVLDPSGSMNIYLVLDGSDSIGASNFTGAKKCLVNLIEKVASYGVKPRYGLVTYATYPKIWVKVSEADSSNADWVTKQLNEINYEDHKLKSGTNTKKALQAVYSMMSWPDDVPPEGWNRTRHVIILMTDGLHNMGGDPITVIDEIRDLLYIGKDRKNPREDYLDVYVFGVGPLVNQVNINALASKKDNEQHVFKVKDMENLEDVFYQMIDESQSLSLCGMVWEHRKGTDYHKQPWQAKISVIRPSKGHESCMGAVVSEYFVLTAAHCFTVDDKEHSIKVSVGGEKRDLEIEVVLFHPNYNINGKKEAGIPEFYDYDVALIKLKNKLKYGQTIRPICLPCTEGTTRALRLPPTTTCQQQKEELLPAQDIKALFVSEEEKKLTRKEVYIKNGDKKGSCERDAQYAPGYDKVKDISEVVTPRFLCTGGVSPYADPNTCRGDSGGPLIVHKRSRFIQVGVISWGVVDVCKNQKRQKQVPAHARDFHINLFQVLPWLKEKLQDEDLGFL
  convertase activity in the stability assay (fluorogenic substrate): the C3b,Bb convertase complex exhibited no activity
